± gives the standard deviation of the averaged measurements. This is one part of the list.
Tested on: PfAP2-EXP AP2 domain (GST-tagged)
Experiment: gcPBM binding intensity (ln(normalized median fluorescence intensity)); higher = stronger DNA binding
How it was run: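 An Agilent 4 × 180k array carrying primer-extended double-stranded 36-bp intergenic genomic probes and negative controls received GST-tagged P. falciparum DNA-binding domains expressed in E. coli, about 25 μg on average, for 1 h. The binding buffer contained 1× PBS, 1% milk, 0.2 mg/ml BSA, 0.5% salmon testes DNA and 0.03% Triton X-100. Binding intensity is the top Masliner-normalised natural-log median intensity across replicate spots of either probe orientation, read after Alexa488 anti-GST antibody staining and a 488 nm scan.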

Sequence	gcPBM binding intensity (ln)
CAAAAATATATTTTTTGTACACAAAAAAAAAATAAA [XGTACX_site5229]	8.43 ± 0.54
ATAGCACATTTTTAAGCACACGTTTATTATATATAT [CACACA_site6084]	8.91 ± 0.17
AAATACATATCATGTAGTACATATATATGTAGGTTA [XGTACX_site5392]	8.54 ± 0.4
AAAACTATTAAATGTAGTACATAATTATTGAAATAA [XGTACX_site8716]	8.52 ± 0.37
CTTATATATTGGGATAGTACTTTTAACTAAATAGAA [XGTACX_site5900]	8.35 ± 0.29
TGTTGTATTTTTACAACACACATTTAATCCATTTAA [CACACA_site1507]	8.18 ± 0.35
ACTTTACGAATTAAGAGTACTTATTTAAGGAACACT [XGTACX_site7919]	8.52 ± 0.37
TTTTTTTGCTCTTTTTATATATATATATATATATAT [GTGCAC_negctrl_site70]	10.2 ± 0.46
TTTTTATTGAGATACTTATATAATTTTATGAATAAA [XGTACX_negctrl_site311]	8.05 ± 0.34
TTTGAAAAGTTGAAATGTACACATTTACACATATTT [XGTACX_site1641]	8.32 ± 0.18
ATCAACATTATGGTTAGTACTTAGTGAATTGTTAAT [XGTACX_site4926]	8.46 ± 0.45
TTATACACCTTTCATTGTACATATAATTTATATTCT [XGTACX_site8685]	8.95 ± 0.33
GTGTAATATATTTTTCGTACATATTATATATATATA [XGTACX_site1675]	9.8 ± 0.37
TCTTCTAATTTACCTACACACAGGAGATATATAAAT [CACACA_site6276]	8.66 ± 0.48
GTTCATAAATTAAACACACACACACCCCTGGATACC [CACACA_site3331]	9.41 ± 0.59
TAATTAATTTATTAGTTGCACTGTACCATTAGAGTA	8.54 ± 0.26
TATATATATATATATTGTACAAAATATTTATATGTT [XGTACX_site436]	10.1 ± 0.37
TATATTACTTTGTGTTGTACGGAAATATATATATAT [XGTACX_site4309]	9.7 ± 0.28
AATATTCAATATATATATATATATAATATTAATATA [GTGCAC_negctrl_site571]	8.21 ± 0.34
AAGGATTTTTTATACACACACTAACTAATGTATATA [CACACA_site7163]	8.27 ± 0.35
TAATACCATAACAAGTGTACATAAATAATTATTGTA [XGTACX_site4949]	8.8 ± 0.44
ATATTTTATTTAATTACACACAATATTGCAATTTGT [CACACA_site669]	8.88 ± 0.49
TATACATAGAAACACACACACATATATATATATATA [CACACA_site2248]	10.1 ± 0.29

Sequence	gcPBM binding intensity (ln)
GTTTATTCTTTTTATACACACCTTATTTGATTAACA [CACACA_site4567]	8.82 ± 0.4
TTACTACTATATTATACACACATATATATATATATA [CACACA_site2621]	10.3 ± 0.23
TGTGAATAAATAAGCACACATAAACACATATATAAA [CACACA_site6114]	8.89 ± 0.33
TTAAAAGAAAAAATATGTACATATATTATATATATC [XGTACX_site7009]	8.63 ± 0.29
TTCTAATATTTTTGCACACTAAACAATAAATTTCCT [CACACA_site3944]	8.885 ± 0.078
TTTATTTATGTAGATACACACCCATGTTATATGGAG [CACACA_site9144]	8.57 ± 0.48
AGCAAAAATTAAATAAATAAATATATATATATATAT [TGCATGCA_negctrl_site449]	10.2 ± 0.63
ATATTAATAATATATACACACATAAGTATTGTATAT [CACACA_site4095]	8.2 ± 0.26
AATGATGTCATAGGGGGTACACATAAATGTGAATGT [XGTACX_site6745]	9.31 ± 0.33
GCAACATTCTAAGACACACACACACCCATATATATA [CACACA_site1053]	8.77 ± 0.42
AATAATATATATATATATATATATAGATATGTATAT [GTGCAC_negctrl_site653]	8.37 ± 0.23
ATGTTAACTAAATGTACACACCTATGTTGATGTAAC [CACACA_site5073]	8.53 ± 0.33
AAAGTTTAAATGAGAAGTACAAATTTTTGTTTTTAT [XGTACX_site1844]	8.41 ± 0.53
TATATATATAAAATATGTACATAAAATTATTTATTT [XGTACX_site7666]	8.61 ± 0.26
ATATAAAGTATGTTAGTGCACTTTTTTTTTTTTTTT [GTGCAC_site9419]	9.02 ± 0.16
TCATAGGAGAACTTTTGTACAGATTTTTCTTTTTTT [XGTACX_site2853]	8.22 ± 0.4
GTAATACACATATAATGTACTCATAAATATATTTAT [XGTACX_site4041]	8.69 ± 0.17
ACATACATACCCCCACGTACGTACCGAAACACCACC [XGTACX_site1982]	9.95 ± 0.38
TTTCTATATCTTTCAACACACAAATTTTTTTTTCCA [CACACA_site108]	8.56 ± 0.46
AATATAAGTGTACATACACACTTTACAATATCATAT [CACACA_site5634]	8.5 ± 0.34
AATTTTATATATATATGTACATATTTATATGCTTAT [XGTACX_site8180]	8.6 ± 0.35
CAAAGAACTTATAGGGTGCTTTACTTATAAGTAAAT [GTGCAC_site9579]	8.51 ± 0.28
GTGGTTGTAATGGTGGTGCATATTGTATATTATGTT	9.26

Sequence	gcPBM binding intensity (ln)
ATTATTTTATATACATGTACATATTATATATAAAAG [XGTACX_site2735]	8.55 ± 0.39
TATAAAATAAAAAATATATATATGTATATATATATA [TGCATGCA_negctrl_site163]	9.86 ± 0.16
TATAAGTGCTCAACGGTGCATTTATAGAAGTTAAAC	9.07 ± 0.27
TTAGATATTAATATATGTACATATTAATATATTTAC [XGTACX_site7119]	8.26 ± 0.4
TATTTATACACGCACACACACTTATACATTTATATA [CACACA_site7543]	8.96 ± 0.42
TTTCTTTTTTAGAGGTGTACACGTAGGCCTCTTGGA [XGTACX_site4760]	8.75 ± 0.31
CACACTTTTTAAATTAACGCATTTCAAAAAAAATAT [CACACA_negctrl_site84]	8.35 ± 0.33
TAAATGTAAAACGAAATGCACACTATGGAAAATATA [CACACA_site724]	9.11 ± 0.41
TATAATTTTTACTGGGTGCACTCGATATTTTAAATA	9.64 ± 0.98
TATCCATATTTGTTCACACACACACGGATTTATATA [CACACA_site7649]	8.78 ± 0.52
TTATTTCTAATTCGTTGTACAATATATAATATATAT [XGTACX_site5861]	8.81 ± 0.42
ATTATTATTTTACGTAGTACATATAATAAATATTTA [XGTACX_site8934]	8.27 ± 0.43
GGAATATTATTTCAATGTACATTTTGAGATTAGAAT [XGTACX_site8187]	8.87 ± 0.74
TTGATAGACACATGCACACATGCAATACTTTATTCA [CACACA_site3000]	8.79 ± 0.099
TAGGTGTTAAAAAATACACACACAAAAAAAAAAAAA [CACACA_site7927]	8.32 ± 0.53
CCTTTAAGCAAAAACACACACACATATATATATATA [CACACA_site348]	10.1 ± 0.5
ACATTTTTGGTTTTAGTGCAATATGAATTATTTTAT	8.635 ± 0.049
TCTTCCATTTTTATTACACACATAAATATGAAATCG [CACACA_site3471]	8.74 ± 0.51
AGTTTTATATTTCTGAGTACTTATGAATCTAGCTCG [XGTACX_site4330]	8.62 ± 0.4
ATTTTTTCTAAAAGTTGTACATTAAAACGTGTTCAC [XGTACX_site4803]	8.45 ± 0.33
TTGTAAAAAATTCATACACACGTCTTATTTTTAAGA [CACACA_site8390]	8.25 ± 0.37
TTTTTTTTTTTTTTTACACACATTTTAATAATTTTA [CACACA_site1492]	8.2 ± 0.44
TTTATATAATATGAATGTACTTATATATTTATAGAC [XGTACX_site3261]	8.49 ± 0.13

Sequence	gcPBM binding intensity (ln)
AAGACTCTTTGTCCTTGTACATATATTTTTATGTTT [XGTACX_site3711]	8.55 ± 0.42
TATTTATTCTCCAACACACACACATATATATATATA [CACACA_site2894]	10.1 ± 0.43
TTATAGGTGCTTCGTAGTACATAAAAATAATATATA [XGTACX_site6979]	8.54 ± 0.33
AAAATGAATTTAAAATGTACTTTTTCTAAAGAGTAA [XGTACX_site2337]	8.07 ± 0.34
AAAAATAAAAGGTGTGCACACAAAAATATATATATA [CACACA_site8507]	9.74
TATTGTTATTAAAAATGTACATATAAATTTCTTATT [XGTACX_site1409]	8.32 ± 0.33
GTATGATGCATAAGAGTGCATAAGGATATTTCTTCA	8.81 ± 0.085
AATTTAAAAAATAACAGTACATAAAATATATACATA [XGTACX_site7917]	8.25 ± 0.3
TGTGTATATTATATGTGTACATATCAATGTTTATAT [XGTACX_site1885]	8.61 ± 0.26
TAATATATAACGTGCACACACACATCTACGTATGAA [CACACA_site5080]	9.025 ± 0.064
TAATATTAAATAAATAAAATATATAATATATATATA [XGTACX_negctrl_site49]	9.31 ± 0.23
TGGCATTAAAATTTAGTGCATATATCTTAGCATGGG	8.91 ± 0.69
TATATATTCATATGTTGTACATAAATACAAATAAGA [XGTACX_site5602]	8.47 ± 0.33
TGCAGTCTGGAGAAGAGTACACAGTATCTGGTAACA [XGTACX_site2037]	8.49 ± 0.16
AAAGGTAAATGTAAATAAATAAATAATAAATATATA [GTGCAC_negctrl_site681]	8.48 ± 0.39
AACAGAATAATACTAAATGAACGATTTCTCTTTATG [GTGCAC_negctrl_site376]	8.2 ± 0.52
ATTTTTTTTTTTTTTTTTTATATGCTCTCCATGAGA [CACACA_negctrl_site1225]	8.19 ± 0.47
TAACTTTTATCCTTAATTCATATATAAGATTAAATC [CACACA_negctrl_site669]	8.33 ± 0.34
ATTAATATGAATAAAACACACATATATAATTTGTAA [CACACA_site1929]	8.37 ± 0.35
AAAAAAAAAAAGAAATGTACATGAATATTTTAAATG [XGTACX_site4069]	8.56 ± 0.4
AAAAAGGAGAAACACACACACACACCCATATATATA [CACACA_site905]	8.8 ± 0.32

Source: the supplement of paper PMC11417369
